# According to the supplement of paper PMC8728848:
# The other results are listed elsewhere or left out.
# Legend:
# Test in all cases: glycan array binding signal (z-score within array); higher = stronger binding
# Details in all cases: glycan notation: IUPAC condensed, linker removed; mutation: E41A
# [1] = target: Fuc(a1-2)Gal(b1-4)GlcNAc(b1-3)Gal(b1-4)GlcNAc(b1-2)Man(a1-3)[Fuc(a1-2)Gal(b1-4)GlcNAc(b1-3)Gal(b1-4)GlcNAc(b1-2)Man(a1-6)]Man(b1-4)GlcNAc(b1-4)GlcNAc
# Procedure, shortened: (§1)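 The Consortium for Functional Glycomics database supplied 3228 glycan arrays, of which those lacking an available protein sequence were dropped. The binding signal, a within-array Z-score, was averaged across arrays of the same protein sequence and across linkers. Negative scores can be read as non-binding.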
# [2] = target: Fuc(a1-2)Gal(b1-4)GlcNAc(b1-3)Gal(b1-4)GlcNAc(b1-3)Gal(b1-4)GlcNAc
# Procedure, shortened: as §1
# [3] = target: Fuc(a1-2)Gal(b1-4)GlcNAc(b1-3)GalNAc
# Procedure, shortened: as §1
# [4] = target: Fuc(a1-2)Gal(b1-4)GlcNAc(b1-3)[Fuc(a1-2)Gal(b1-4)GlcNAc(b1-6)]GalNAc
# Procedure, shortened: as §1
# [5] = target: Fuc(a1-2)Gal(b1-4)GlcNAc(b1-3)[Fuc(a1-3)[Gal(b1-4)]GlcNAc(b1-6)]Gal(b1-4)Glc
# Procedure, shortened: as §1
# [6] = target: Fuc(a1-2)Gal(b1-4)GlcNAc(b1-6)GalNAc
# Procedure, shortened: as §1
# [7] = target: Fuc(a1-2)Gal(b1-4)GlcNAc6S
# Procedure, shortened: as §1
# [8] = target: Fuc(a1-2)Gal(b1-4)[Fuc(a1-3)]GlcNAc
# Procedure, shortened: as §1
# [9] = target: Fuc(a1-2)Gal(b1-4)[Fuc(a1-3)]GlcNAc(b1-2)Man(a1-3)[Fuc(a1-2)Gal(b1-4)[Fuc(a1-3)]GlcNAc(b1-2)Man(a1-6)]Man(b1-4)GlcNAc(b1-4)[Fuc(a1-6)]GlcNAc
# Procedure, shortened: as §1
# [10] = target: Fuc(a1-2)Gal(b1-4)[Fuc(a1-3)]GlcNAc(b1-2)[Fuc(a1-2)Gal(b1-4)[Fuc(a1-3)]GlcNAc(b1-4)]Man(a1-3)[Fuc(a1-2)Gal(b1-4)[Fuc(a1-3)]GlcNAc(b1-2)Man(a1-6)]Man(b1-4)GlcNAc(b1-4)GlcNAc
# Procedure, shortened: as §1
# [11] = target: Fuc(a1-2)Gal(b1-4)[Fuc(a1-3)]GlcNAc(b1-3)Gal(b1-4)[Fuc(a1-3)]GlcNAc
# Procedure, shortened: as §1
# [12] = target: Fuc(a1-2)Gal(b1-4)[Fuc(a1-3)]GlcNAc(b1-3)Gal(b1-4)[Fuc(a1-3)]GlcNAc(b1-3)Gal(b1-4)[Fuc(a1-3)]GlcNAc
# Procedure, shortened: as §1
# [13] = target: Fuc(a1-2)Gal(b1-4)[Fuc(a1-3)]GlcNAc(b1-3)GalNAc
# Procedure, shortened: as §1
# [14] = target: Fuc(a1-2)Gal(b1-4)[Fuc(a1-3)]GlcNAc(b1-3)[Neu5Ac(a2-6)Gal(b1-4)GlcNAc(b1-6)]Gal(b1-4)Glc
# Procedure, shortened: as §1
# [15] = target: Fuc(a1-2)Gal3S(b1-4)GlcNAc
# Procedure, shortened: as §1
# [16] = target: Fuc(a1-2)Gal6S(b1-3)GlcNAc
# Procedure, shortened: as §1
# [17] = target: Fuc(a1-2)Gal6S(b1-3)GlcNAc6S
# Procedure, shortened: as §1
# [18] = target: Fuc(a1-2)Gal6S(b1-4)Glc
# Procedure, shortened: as §1
# [19] = target: Fuc(a1-2)Gal6S(b1-4)Glc6S
# Procedure, shortened: as §1
# [20] = target: Fuc(a1-2)[Gal(a1-3)]Gal
# Procedure, shortened: as §1
# [21] = target: Fuc(a1-2)[Gal(a1-3)]Gal(b1-3)GalNAc
# Procedure, shortened: as §1
# [22] = target: Fuc(a1-2)[Gal(a1-3)]Gal(b1-3)GalNAc(b1-3)Gal(a1-4)Gal(b1-4)Glc
# Procedure, shortened: as §1
# [23] = target: Fuc(a1-2)[Gal(a1-3)]Gal(b1-3)GlcNAc
# Procedure, shortened: as §1
# [24] = target: Fuc(a1-2)[Gal(a1-3)]Gal(b1-3)GlcNAc(b1-2)Man(a1-3)[Fuc(a1-2)[Gal(a1-3)]Gal(b1-3)GlcNAc(b1-2)Man(a1-6)]Man(b1-4)GlcNAc(b1-4)GlcNAc
# Procedure, shortened: as §1
# [25] = target: Fuc(a1-2)[Gal(a1-3)]Gal(b1-3)GlcNAc(b1-2)Man(a1-3)[Fuc(a1-2)[Gal(a1-3)]Gal(b1-3)GlcNAc(b1-2)Man(a1-6)]Man(b1-4)GlcNAc(b1-4)[Fuc(a1-6)]GlcNAc
# Procedure, shortened: as §1
# [26] = target: Fuc(a1-2)[Gal(a1-3)]Gal(b1-3)GlcNAc(b1-3)GalNAc
# Procedure, shortened: as §1
# [27] = target: Fuc(a1-2)[Gal(a1-3)]Gal(b1-3)GlcNAc(b1-6)GalNAc
# Procedure, shortened: as §1
# [28] = target: Fuc(a1-2)[Gal(a1-3)]Gal(b1-4)Glc
# Procedure, shortened: as §1
# [29] = target: Fuc(a1-2)[Gal(a1-3)]Gal(b1-4)GlcNAc
# Procedure, shortened: as §1
# [30] = target: Fuc(a1-2)[Gal(a1-3)]Gal(b1-4)GlcNAc(b1-2)Man
# Procedure, shortened: as §1
binder,measurement,setting,value
CVN-E41G (protein) MHHHHHHENLYFQSGNFSQACYNSAIQGSVLTSTCIRTNGGYNTSSIDLNSVIANVDGSLKWQGSNFIETCRNTQLAGSSELAAECKTRAQQFVSTKINLDDHIAAIDGTLKYE,glycan array binding signal (z-score),[1],-0.132
same,glycan array binding signal (z-score),[2],0.013
same,glycan array binding signal (z-score),[3],-0.19
same,glycan array binding signal (z-score),[4],-0.149
same,glycan array binding signal (z-score),[5],-0.187
same,glycan array binding signal (z-score),[6],-0.135
same,glycan array binding signal (z-score),[7],0.063
same,glycan array binding signal (z-score),[8],-0.215
same,glycan array binding signal (z-score),[9],0
same,glycan array binding signal (z-score),[10],0.441
same,glycan array binding signal (z-score),[11],-0.148
same,glycan array binding signal (z-score),[12],0.107
same,glycan array binding signal (z-score),[13],-0.136
same,glycan array binding signal (z-score),[14],-0.163
same,glycan array binding signal (z-score),[15],-0.225
same,glycan array binding signal (z-score),[16],-0.059
same,glycan array binding signal (z-score),[17],0.125
same,glycan array binding signal (z-score),[18],-0.221
same,glycan array binding signal (z-score),[19],0.18
same,glycan array binding signal (z-score),[20],-0.234
same,glycan array binding signal (z-score),[21],-0.12
same,glycan array binding signal (z-score),[22],-0.239
same,glycan array binding signal (z-score),[23],-0.205
same,glycan array binding signal (z-score),[24],0.579
same,glycan array binding signal (z-score),[25],0.64
same,glycan array binding signal (z-score),[26],-0.2
same,glycan array binding signal (z-score),[27],-0.21
same,glycan array binding signal (z-score),[28],-0.04
same,glycan array binding signal (z-score),[29],-0.223
same,glycan array binding signal (z-score),[30],-0.085
